Assay in all cases: glycan array binding signal (z-score within array); higher = stronger binding
What all share (details): glycan notation: IUPAC condensed, linker removed

The target of assay [1] is GlcNAc(b1-2)[GlcNAc(b1-6)]Man(a1-6)[GlcNAc(b1-4)][GlcNAc(b1-2)Man(a1-3)]Man(b1-4)GlcNAc(b1-4)GlcNAc. In a few lines:
(§1)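 Columns mapping to the same glycan were averaged after glycan names were converted to IUPAC-condensed notation. The data come from 3228 arrays in the Consortium for Functional Glycomics database, limited to those with an available protein sequence. Binding is reported as a within-array Z-score averaged across arrays of one protein sequence and across linkers.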

For assay [2], the target named is GlcNAc(b1-3)Fuc. Summed up:
as §1

The target of assay [3] is GlcNAc(b1-3)Gal. In a few lines: as §1
For assay [4], the target named is GlcNAc(b1-3)Gal(b1-3)GalNAc. In a few lines: as §1
For assay [5], the target named is GlcNAc(b1-3)Gal(b1-4)Glc. Summed up:
as §1

Assay [6] has as its target GlcNAc(b1-3)Gal(b1-4)GlcNAc. In a few lines: as §1
Assay [7] concerns the target GlcNAc(b1-3)Gal(b1-4)GlcNAc(b1-2)Man(a1-3)[GlcNAc(b1-3)Gal(b1-4)GlcNAc(b1-2)Man(a1-6)]Man(b1-4)GlcNAc(b1-4)GlcNAc. In a few lines: as §1
In assay [8] the target is GlcNAc(b1-3)Gal(b1-4)GlcNAc(b1-2)Man(a1-3)[GlcNAc(b1-3)Gal(b1-4)GlcNAc(b1-2)Man(a1-6)]Man(b1-4)GlcNAc(b1-4)[Fuc(a1-6)]GlcNAc. Summed up: as §1
Assay [9] has as its target GlcNAc(b1-3)Gal(b1-4)GlcNAc(b1-2)[GlcNAc(b1-3)Gal(b1-4)GlcNAc(b1-6)]Man(a1-6)[GlcNAc(b1-3)Gal(b1-4)GlcNAc(b1-2)Man(a1-3)]Man(b1-4)GlcNAc(b1-4)GlcNAc. In a few lines: as §1
For assay [10], the target named is GlcNAc(b1-3)Gal(b1-4)GlcNAc(b1-3)Gal(b1-4)GlcNAc. In a few lines:
as §1

Assay [11] deals with GlcNAc(b1-3)Gal(b1-4)GlcNAc(b1-3)Gal(b1-4)GlcNAc(b1-2)Man(a1-3)[GlcNAc(b1-3)Gal(b1-4)GlcNAc(b1-3)Gal(b1-4)GlcNAc(b1-2)Man(a1-6)]Man(b1-4)GlcNAc(b1-4)GlcNAc. Summed up: as §1
The target of assay [12] is GlcNAc(b1-3)Gal(b1-4)GlcNAc(b1-3)Gal(b1-4)GlcNAc(b1-2)Man(a1-3)[GlcNAc(b1-3)Gal(b1-4)GlcNAc(b1-3)Gal(b1-4)GlcNAc(b1-2)Man(a1-6)]Man(b1-4)GlcNAc(b1-4)[Fuc(a1-6)]GlcNAc. In a few lines:
as §1

Assay [13] concerns the target GlcNAc(b1-3)Gal(b1-4)GlcNAc(b1-3)Gal(b1-4)GlcNAc(b1-2)[GlcNAc(b1-3)Gal(b1-4)GlcNAc(b1-3)Gal(b1-4)GlcNAc(b1-6)]Man(a1-6)[GlcNAc(b1-3)Gal(b1-4)GlcNAc(b1-3)Gal(b1-4)GlcNAc(b1-2)Man(a1-3)]Man(b1-4)GlcNAc(b1-4)[Fuc(a1-6)]GlcNAc. Summed up: as §1
Assay [14] concerns the target GlcNAc(b1-3)Gal(b1-4)GlcNAc(b1-3)Gal(b1-4)GlcNAc(b1-3)Gal(b1-4)GlcNAc(b1-2)Man(a1-3)[GlcNAc(b1-3)Gal(b1-4)GlcNAc(b1-3)Gal(b1-4)GlcNAc(b1-3)Gal(b1-4)GlcNAc(b1-2)Man(a1-6)]Man(b1-4)GlcNAc(b1-4)GlcNAc. Summed up: as §1
Assay [15] addresses GlcNAc(b1-3)Gal(b1-4)GlcNAc(b1-3)Gal(b1-4)GlcNAc(b1-3)Gal(b1-4)GlcNAc(b1-2)Man(a1-3)[GlcNAc(b1-3)Gal(b1-4)GlcNAc(b1-3)Gal(b1-4)GlcNAc(b1-3)Gal(b1-4)GlcNAc(b1-2)Man(a1-6)]Man(b1-4)GlcNAc(b1-4)[Fuc(a1-6)]GlcNAc. Summed up:
as §1

For assay [16], the target named is GlcNAc(b1-3)Gal(b1-4)GlcNAc(b1-3)Gal(b1-4)GlcNAc(b1-3)Gal(b1-4)GlcNAc(b1-2)[GlcNAc(b1-3)Gal(b1-4)GlcNAc(b1-3)Gal(b1-4)GlcNAc(b1-3)Gal(b1-4)GlcNAc(b1-6)]Man(a1-6)[GlcNAc(b1-3)Gal(b1-4)GlcNAc(b1-3)Gal(b1-4)GlcNAc(b1-3)Gal(b1-4)GlcNAc(b1-2)Man(a1-3)]Man(b1-4)GlcNAc(b1-4)[Fuc(a1-6)]GlcNAc. In a few lines: as §1
The target in assay [17] is GlcNAc(b1-3)Gal(b1-4)GlcNAc(b1-3)Gal(b1-4)GlcNAc(b1-3)Gal(b1-4)GlcNAc(b1-3)Gal(b1-4)GlcNAc(b1-2)Man(a1-3)[GlcNAc(b1-3)Gal(b1-4)GlcNAc(b1-3)Gal(b1-4)GlcNAc(b1-3)Gal(b1-4)GlcNAc(b1-3)Gal(b1-4)GlcNAc(b1-2)Man(a1-6)]Man(b1-4)GlcNAc(b1-4)GlcNAc. Summed up: as §1
For assay [18], the target named is GlcNAc(b1-3)Gal(b1-4)GlcNAc(b1-3)Gal(b1-4)GlcNAc(b1-3)Gal(b1-4)GlcNAc(b1-3)Gal(b1-4)GlcNAc(b1-2)Man(a1-3)[GlcNAc(b1-3)Gal(b1-4)GlcNAc(b1-3)Gal(b1-4)GlcNAc(b1-3)Gal(b1-4)GlcNAc(b1-3)Gal(b1-4)GlcNAc(b1-2)Man(a1-6)]Man(b1-4)GlcNAc(b1-4)[Fuc(a1-6)]GlcNAc. Summed up: as §1
Assay [19] deals with GlcNAc(b1-3)Gal(b1-4)GlcNAc(b1-3)Gal(b1-4)GlcNAc(b1-3)Gal(b1-4)GlcNAc(b1-3)Gal(b1-4)GlcNAc(b1-2)[GlcNAc(b1-3)Gal(b1-4)GlcNAc(b1-3)Gal(b1-4)GlcNAc(b1-3)Gal(b1-4)GlcNAc(b1-3)Gal(b1-4)GlcNAc(b1-6)]Man(a1-6)[GlcNAc(b1-3)Gal(b1-4)GlcNAc(b1-3)Gal(b1-4)GlcNAc(b1-3)Gal(b1-4)GlcNAc(b1-3)Gal(b1-4)GlcNAc(b1-2)Man(a1-3)]Man(b1-4)GlcNAc(b1-4)[Fuc(a1-6)]GlcNAc. In a few lines:
as §1

This is one part of the list.

B1: PX14375l-pdi-526-25-526 (Parabacteroides distasonis) (protein)
chain: DEEPKSTLTDVAYYKTQSQMESNVNYLYRTGAIGSYVDFGSAYIGPFASIQEELTGYFSNSYEGQEIVCRYTRELTRQQNTMQLASKMDKVWDDCYRGINVANGAIKHMPEVPMDQATADRLTAEAKFFRAFNYFYLVKTFGAVPFYTDPYELAENMELPRTETSTIYNQIESDLKDAMNVLPEATFAANGHRITKYVAAMTLTDVYMYQHKYAEAAETVRIVVNSNHKLTTNDDLAMNSAFNKLRSTDDLDEAIYAYEYDNQISPSNWLPTYAFDGDASSNGLFGTYAITQKVHGPNDRYLNIYESNDLRRQPNQFYHWTYTNPKTGKVWNSVGNAACCWYYYDEDALLTTGRGTKDWNVYRYAEALLDAAESIAQSTGVTAEAAGYLAQVKARANMEGKTAAEIASSLQSMGKQAFIEECWTERLRELPLEFKMWDMCVRTGMFPNISETTPGQVTYIPLVGAKNASGATIKESDLLWPLSVNEIQRNPSLTQNEGYSAK
With B1, the “glycan array binding signal (z-score)” value in [1] was -0.309; in [2], -0.349; in [3] it was -0.32; in assay [4], -0.04; in assay [5] it was -0.236; in [6] it was -0.349. Besides, the “glycan array binding signal (z-score)” value is -0.322 in assay [7]; 0.013 in assay [8]; 0.167 in [9]; -0.504 in [10]; -0.17 in assay [11]; 0.182 in assay [12]. Besides, the “glycan array binding signal (z-score)” value in [13] was 0.155; in [14], -0.168; in assay [15] it was 0.147; in [16], 0.491; in [17], 0.058; in [18], -0.366. In addition, in assay [19], the “glycan array binding signal (z-score)” value was -0.068.

Values taken from the supplement of paper PMC8728848.
